In experiment [1] the target is T1, full length murine TAF3 (mTAF3), Sf9 extract (mouse) (UniProt Q5HZG4).
T1 sequence: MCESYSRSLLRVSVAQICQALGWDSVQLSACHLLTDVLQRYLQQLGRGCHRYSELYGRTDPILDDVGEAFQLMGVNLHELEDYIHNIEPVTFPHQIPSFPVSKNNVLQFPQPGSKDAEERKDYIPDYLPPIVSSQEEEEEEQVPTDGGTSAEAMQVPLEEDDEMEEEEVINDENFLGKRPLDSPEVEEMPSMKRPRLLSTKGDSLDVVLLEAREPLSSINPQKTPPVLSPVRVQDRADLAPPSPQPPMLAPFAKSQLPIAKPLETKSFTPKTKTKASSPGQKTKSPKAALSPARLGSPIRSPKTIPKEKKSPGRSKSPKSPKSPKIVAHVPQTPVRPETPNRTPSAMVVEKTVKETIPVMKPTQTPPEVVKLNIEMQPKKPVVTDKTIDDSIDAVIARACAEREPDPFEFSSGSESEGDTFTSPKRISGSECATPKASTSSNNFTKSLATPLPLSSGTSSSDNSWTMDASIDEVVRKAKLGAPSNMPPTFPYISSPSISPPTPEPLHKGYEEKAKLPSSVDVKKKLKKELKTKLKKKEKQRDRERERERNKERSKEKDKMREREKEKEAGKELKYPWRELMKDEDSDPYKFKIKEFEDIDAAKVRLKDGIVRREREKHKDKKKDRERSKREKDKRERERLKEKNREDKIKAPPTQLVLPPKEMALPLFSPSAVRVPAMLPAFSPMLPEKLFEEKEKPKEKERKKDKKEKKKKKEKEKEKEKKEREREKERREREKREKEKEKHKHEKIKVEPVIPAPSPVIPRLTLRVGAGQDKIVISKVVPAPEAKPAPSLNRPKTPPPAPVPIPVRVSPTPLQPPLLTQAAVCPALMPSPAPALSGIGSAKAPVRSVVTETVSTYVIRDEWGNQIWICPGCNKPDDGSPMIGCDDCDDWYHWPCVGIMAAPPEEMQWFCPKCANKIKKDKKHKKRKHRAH
Put plainly: co-IP; in vitro translated 35S-labelled proteins mixed with Sf9 extract overexpressing mTAF3; immunoprecipitation with anti-TAF3 39TA2F5; washed 3 times with PBS and once with PBS with 200 mM KCl; fluorography.

The chains behind the UniProt entries cited, without tags or fusion partners.
UniProt P08659: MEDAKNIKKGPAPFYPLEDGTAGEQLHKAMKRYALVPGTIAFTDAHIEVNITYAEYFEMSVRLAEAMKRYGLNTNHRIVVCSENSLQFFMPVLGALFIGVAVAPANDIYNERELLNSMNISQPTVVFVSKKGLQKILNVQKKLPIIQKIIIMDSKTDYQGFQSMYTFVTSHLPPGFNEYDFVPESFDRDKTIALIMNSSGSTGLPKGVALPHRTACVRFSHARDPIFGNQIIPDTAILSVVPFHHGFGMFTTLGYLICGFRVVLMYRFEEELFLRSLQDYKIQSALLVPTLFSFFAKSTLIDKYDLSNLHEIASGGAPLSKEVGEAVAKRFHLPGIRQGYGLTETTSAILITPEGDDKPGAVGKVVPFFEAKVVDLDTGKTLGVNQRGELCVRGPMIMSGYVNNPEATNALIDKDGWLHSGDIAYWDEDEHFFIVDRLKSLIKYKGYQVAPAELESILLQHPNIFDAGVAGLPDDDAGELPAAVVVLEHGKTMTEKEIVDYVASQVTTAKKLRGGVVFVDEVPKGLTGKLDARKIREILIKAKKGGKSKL

Experiment [2] deals with T2, mTAF3 overexpressed in 293T cells (mouse) (UniProt Q5HZG4).
T2 sequence: T1 sequence
Put plainly: co-IP; 293T cells co-transfected with p53 and mTAF3 plasmids, lysed 48 h after transfection; immunoprecipitation with anti-TAF3 39TA1C7, Western blot with anti-p53.

These are yes or no findings as the source states them, for the method shown. In cells and extracts the contact can be indirect. Some entries that bind do so weakly or less than the wild type.

As to “firefly luciferase, in vitro translated (from UniProt P08659 1-550) (enzyme)”, the binding entry in experiment [1] is on record as “no binding”.
On to “human p53 overexpressed in 293T cells (from UniProt P04637 1-393)”, for which, in experiment [2], the binding result is “binds”.
Turning to “full length human p53, in vitro translated (from UniProt P04637 1-393)”, the binding entry in experiment [1] is given as “binds”.

For the origin of these results see article PMC2441632.
